# According to paper PMC4336329 (PLoS ONE, 2015):
# The whole screen tested about 310,000 compounds, of which about 14,000 (4.5%) showed an effect of 50% or more. Effects have a minus sign here. Some of the results follow.
# Molecular target: human ether-à-go-go-related gene (hERG) potassium channel (human, UniProt Q12809)
# Assay: primary screen, population patch clamp on CHO cells stably expressing hERG
# 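Further: peak tail current of the secondary pulse compared with the same well before compound.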
# Sequence of human ether-à-go-go-related gene (hERG) potassium channel (Q12809 whole entry, looked up): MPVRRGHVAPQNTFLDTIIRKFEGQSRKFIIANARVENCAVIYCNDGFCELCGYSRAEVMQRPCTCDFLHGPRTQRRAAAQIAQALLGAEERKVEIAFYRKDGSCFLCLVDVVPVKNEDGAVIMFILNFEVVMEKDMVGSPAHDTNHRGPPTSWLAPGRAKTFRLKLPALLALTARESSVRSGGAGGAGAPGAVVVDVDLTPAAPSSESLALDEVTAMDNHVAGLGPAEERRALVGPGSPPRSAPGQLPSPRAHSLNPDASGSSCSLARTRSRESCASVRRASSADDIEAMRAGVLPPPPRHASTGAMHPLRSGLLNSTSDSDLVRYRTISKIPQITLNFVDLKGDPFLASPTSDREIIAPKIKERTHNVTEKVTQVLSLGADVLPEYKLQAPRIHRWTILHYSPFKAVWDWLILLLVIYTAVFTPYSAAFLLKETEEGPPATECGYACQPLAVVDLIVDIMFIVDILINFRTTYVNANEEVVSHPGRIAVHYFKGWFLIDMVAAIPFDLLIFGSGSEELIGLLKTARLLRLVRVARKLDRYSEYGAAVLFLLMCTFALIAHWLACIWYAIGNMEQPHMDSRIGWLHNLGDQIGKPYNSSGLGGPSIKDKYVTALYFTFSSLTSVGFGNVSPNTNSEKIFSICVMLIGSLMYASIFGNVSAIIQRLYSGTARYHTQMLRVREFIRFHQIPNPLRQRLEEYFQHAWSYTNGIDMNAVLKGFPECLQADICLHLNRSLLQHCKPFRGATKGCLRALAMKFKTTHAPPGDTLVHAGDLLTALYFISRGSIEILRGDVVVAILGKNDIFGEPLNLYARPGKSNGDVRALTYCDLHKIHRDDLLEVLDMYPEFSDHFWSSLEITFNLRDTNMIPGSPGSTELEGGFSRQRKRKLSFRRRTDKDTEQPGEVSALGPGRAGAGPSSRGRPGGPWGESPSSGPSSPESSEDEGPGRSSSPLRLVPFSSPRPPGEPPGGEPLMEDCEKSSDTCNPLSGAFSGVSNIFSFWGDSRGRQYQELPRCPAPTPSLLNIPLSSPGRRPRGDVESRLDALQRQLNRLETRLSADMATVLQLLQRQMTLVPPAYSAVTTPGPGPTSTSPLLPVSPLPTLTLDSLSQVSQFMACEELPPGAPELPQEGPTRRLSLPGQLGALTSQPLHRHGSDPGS
row,SMILES,"hERG current change (%, negative = inhibition) at 10uM [%]"
1,CCn1cc([N+](=O)[O-])c(C(=O)Nc2ccc3c(c2)OCCO3)n1,-9.69
2,CN(/N=C/c1cccc(Br)c1)C1=NS(=O)(=O)c2ccccc21,-11.8
3,CCN=C1SC(CC(=O)NCc2ccccc2)C(=O)N1CC (centres unmarked),17.6
4,COc1ccc(CCNC(=O)C(=O)NCC2OCCN2S(=O)(=O)c2ccc(OC)c(C)c2)cc1 (centres unmarked),-24.5
5,CCOC(=O)C1=C(COC(=O)CCC(=O)c2ccc(C)cc2)NC(=O)NC1C (centres unmarked),19.3
6,COc1ccc(N2CCN(C(=O)c3cc(=O)[nH]c4ccccc34)CC2)cc1,-0.412
7,Cc1ccc(-n2nc3c(c2NC(=O)c2ccc(F)c(F)c2)CS(=O)(=O)C3)cc1,-1.48
8,CCOc1ccccc1C1C(C#N)=C(N)Nc2onc(-c3ccccc3)c21 (centres unmarked),4.25
9,COc1cc(C(=O)N/N=C(\C)Cc2ccccc2)cc(OC)c1OC,9.1
10,O=C(CN1CCN(c2ccc(Cl)cc2)CC1)c1ccccc1,-6.33
11,CC(C)(C)c1ccc(NC(=O)C2CCCN(c3cnccn3)C2)cc1 (centres unmarked),-9.72
12,Cc1ccc(S(=O)(=O)N2CCCCC2)cc1C(=O)Nc1ccccn1,14.5
13,CCn1c(SCc2nc3ccccc3[nH]2)nnc1-c1cnccn1,-7.51
14,N/C(CC(=O)Nc1ccc(F)cc1)=N\O,-5.41
15,O=C(COC(=O)c1ccc(Cl)c([N+](=O)[O-])c1)NC1CCCC1,14.4
16,COc1ccc(N2C(=O)C3CCCN3C2c2cc(OC)c(OC)c(OC)c2)cc1 (centres unmarked),-1.33
17,O=C(O)c1ccc(CSc2ccccn2)cc1,10.1
18,O=C(CSc1nnc(Cn2nnc3ccccc32)o1)Nc1cccc(Cl)c1,2.56
19,CSc1nnc(C)c(=O)n1COC(=O)COc1ccc(F)cc1,-35.6
20,CCc1cc2c(=O)oc(-c3ccccc3F)nc2s1,12.1
21,COc1ccc(S(=O)(=O)NCc2ccc3c(c2)OCO3)cc1C,-18.5
22,Cc1cc(C)c(NC(=O)Nc2ccccc2)c(Cl)c1,-7.39

row,SMILES,"hERG current change (%, negative = inhibition) at 10uM [%]"
1,O=C(NNS(=O)(=O)c1ccccc1[N+](=O)[O-])c1cccnc1,-2.96
2,O=C(Nc1ccccn1)C(NS(=O)(=O)c1cccc2nsnc12)c1ccccc1 (centres unmarked),-4.67
3,CC1(C)CC(=O)C(C=NC(CCC(N)=O)C(=O)O)=C(O)C1 (centres unmarked),0.668
4,Cc1cc(N/N=C/c2ccc(O)c(C)c2O)nc(-c2ccccc2O)n1,5.29
5,CSC1=N/C(=C\c2ccccc2)C(=O)N1C,-12.7
6,O=C(Nc1nnc(-c2ccccn2)o1)c1cccc(Cl)c1,-0.458
7,COc1ccc(C)cc1NC(=O)NNC(=O)C1CCC(C(C)(C)C)CC1 (centres unmarked),11.8
8,CS(=O)(=O)c1ccc(Cl)c(NC(=O)CN2CCCC2c2ccc3c(c2)OCCCO3)c1 (centres unmarked),-37.1
9,COc1ccc(CC(NC(C)=O)C(=O)NC2CCN(C(=O)c3ccc([N+](=O)[O-])cc3)CC2)cc1OC (centres unmarked),4.93
10,CN(C)S(=O)(=O)c1cc(NC(=O)CN2C(=O)NC3(CCCc4ccccc43)C2=O)ccc1Cl (centres unmarked),-6
11,Cc1ccc(NS(=O)(=O)c2cccc(C(=O)N3CCCCCC3)c2)cc1,-8.85
12,O=C(O)Cn1c(SCCOc2ccc(Cl)cc2)nc2ccccc21,20.8
13,Cc1n[nH]c(C)c1Cc1c(F)cccc1Cl,-1.32
14,COc1cc(-c2cc3nc(C)c(C)c(=O)n3[nH]2)cc(OC)c1OC,-34
15,CC1CCCC(NC(=O)c2ccncc2)C1C (centres unmarked),14.8
16,CC12CCC(c3c1nc1ccccc1[n+]3[O-])C2(C)C (centres unmarked),-3.25
17,CCN(CC)S(=O)(=O)c1cccc(C(=O)Nc2ccc(C#N)cc2)c1,-77.3
18,CC(C)c1ccccc1OCC(=O)NCC(c1cccs1)N1CCOCC1 (centres unmarked),-50.2
19,COC(=O)CN1C(=O)[C@H]2[C@@H](c3ccc(C)o3)N3C(=O)CN(CC4CC4)C(=O)[C@@]3(Cc3ccccc3)[C@H]2C1=O,-18.5
20,CCOc1cccc(C(=O)Nc2ccc3oc(-c4cccnc4)nc3c2)c1,-9.4
21,Cc1ccc2cc(CCl)c(Cl)nc2c1,3.34
22,CCOc1ccc2oc(-c3ccccc3)c(C(N)=O)c2c1,26.4
